The source gives no read counts; variants with many changes may rest on few reads.

Sequences and labels used below:
B1: LINE1-mini (parent)
chain: GGCAGAGCUCAACACAGCGUGGCAAAGUGGCUGUGGCUAGACUGCC

This data set covers variants of B1. Nature of the data set: self-cleavage, relative activity (ratio to wild type); higher = more cleavage; in vitro, sequencing; the parent is a self-cleaving ribozyme.
As to GGCAUAGCUGAACACAGCGUGCUAAAGUGGCUGUGGCUAGACUGCC [G5U C10G G22C C23U], the self-cleavage came out at 0.01.
With GGCAUAGCUCAGCACAGCGUGACAAAGUAGCUGUGGCUAGACAUCC [G5U A12G G22A G29A U43A G44U], the self-cleavage came out at 0.02.
Regarding GGCAUAGCUCAACACAGCGUGGCACAGUGGCUGUGGGUAGACUGCC [G5U A25C C37G], the self-cleavage came out at 0.03.
In the case of GGCAUAGCUAACCACAGCGUGGCAAAGUGGCUGUGGCUAGACUGCC [G5U C10A A12C] it was 0.04; in that of GGCAUAGGUCAACAGAGCGUGGUAAAGAGGCUGGGGCUAGACUGCC [G5U C8G C15G C23U U28A U34G], 0.04.
In the case of GGCAUAGCUCAACACAGGGUGGCAAAGCGGCUGUGGCUAGACUGUU [G5U C18G U28C C45U C46U] it was 0.05.
The result for GGCAUAGCUGAACCCAGCGAGGCAAAGUGGCUGUGGCUAGACUGCC [G5U C10G A14C U20A] reads 0.01; that for GGCAUAGCUGAACACACCGUGUCACGGUAGCUGUGGCUAGACUGCC [G5U C10G G17C G22U A25C A26G G29A], 0.01; that for GGCAUAGCUCAACACAGUGUGGCAAAGUGGCGGUGGCUAGACUGCC [G5U C18U U32G], 0.03.
Turning to GGCAUAGCUCAACACAGCGUGGCAGAGUAGCUGUGGCAAGACUGCC [G5U A25G G29A U38A], the self-cleavage turned out to be 0.01.
In the case of GGCAUAGCUCAACACAGCGUGGAAAAGUGUCUGUGGCUACACUGCC [G5U C23A G30U G40C] it was 0.43.
As to GGCAUAGCUCAAUACAGCGUGGCAAAGUUGCUUUGGCUAGACUGCC [G5U C13U G29U G33U], the self-cleavage is 0.
Turning to GGCAUAGCUCAACAGAGCGUGGCGAAGUGGCUGUGGCUACACUGCC [G5U C15G A24G G40C], the self-cleavage is 0.03.
The result for GGCAUAGCUCAAAAAAGCCUGGCAAAGUGGCUGUGGCUAGACUGCC [G5U C13A C15A G19C] reads 0.02; that for GGCAUAGUUCAACACAGCGUGGCCAAGUGGCUGUGGCUAGACUGCC [G5U C8U A24C], 0.17; that for GGCAUAGCUCAACACAGCGUGGCUAAGUGGCUGUCGCUAGACCGCC [G5U A24U G35C U43C], 0.06.
In the case of GGCAUAGAUCAACACACCGUGGCAAAGUGGGUGCGGCUAGACUGCA [G5U C8A G17C C31G U34C C46A] it was 0.38.
The result for GGCAUAGAUCAACACAGCGUGACAAAGUGGGUGUGGCUAGACUGCC [G5U C8A G22A C31G] reads 0.14; that for GGCAUAGCUCAACACGGCGUGGCAAAGUUGCUGUCGCUAAACUGCC [G5U A16G G29U G35C G40A], 0.1.
With GGCAUAGGUCAACACAUCGUGGCAAGGUGGCUGUGGCUAGACUGCC [G5U C8G G17U A26G], the self-cleavage is 0.09.
In the case of GGCAUAGCUCAACACAGCGUGGCAAGGUGUCUGUGGCUAGACUGCC [G5U A26G G30U] it was 0.05.
The result for GGCAUAGCUCAACACAGGGUGCCAAAGUGGCUGUGGCUAGACAGCU [G5U C18G G22C U43A C46U] reads 0.04.
In the case of GGCAUAGAUCAACACAGCGUCGCAAAGUGGCUGUGACUAGACUGCC [G5U C8A G21C G36A], the self-cleavage was 0.96.
As to GGCAUAGCUCAACACAGUGUGGCAAAGUGGCUGUGGCUAGAUUGCC [G5U C18U C42U], the self-cleavage turned out to be 0.02.
On to GGCAUAGCUCAAACCAGCGUGGCGAACUGGCUGUGGCUAGACUGCC [G5U C13A A14C A24G G27C], for which the self-cleavage is 0.01.
In the case of GGCAUAGGUAAACACUGCGUGGCAAAGUGGCUGUGGCUAGACUGCC [G5U C8G C10A A16U] it was 0.01.
The result for GGCAUAGCUUAACACAGCGUGGCAAAGUGGCUGUGGCUAAACUGCA [G5U C10U G40A C46A] reads 0.05; that for GGCAUAGCUCAUCACAUCGUGGAAAAGUGGCUGUGGCUAGACUGCG [G5U A12U G17U C23A C46G], 0.01.
In the case of GGCAUAGCUAAACACCGCGUGGCAAAGUUGCUGUGGCUAGAAUGCC [G5U C10A A16C G29U C42A] it was 0.01; in that of GGCAUAGCUAAACACAGCGUGACAAAGUGGCUGUGGCUAGACUGCC [G5U C10A G22A], 0.03.
On to GGCAUAGCUCAACGCAUCGUGGCAAAGUGGCUGUGGCUAGACAGAC [G5U A14G G17U U43A C45A], for which the self-cleavage turned out to be 0.05.
In the case of GGCAUAGCUCAAAACAGCGUGGCAAAGUGCCUGUGGCUAGACUGCC [G5U C13A G30C] it was 0.14; in that of GGCAUAGCUAAACAUAGCGUGGCAAAGUGGCUGUGGCUAGACUGGC [G5U C10A C15U C45G], 0.02.
In the case of GGCAUAGGUCAACACAGUGUGGCAAAGUGGCUGUGGCUAGACUGCC [G5U C8G C18U] it was 0.08.
The result for GGCAUAGUUCAACGCAGCGUGGCAAAGUGGCUGUUGCUAGACUGAC [G5U C8U A14G G35U C45A] reads 0.41; that for GGCAUAGCUCAAAACAGCGUGGCAAAGUGGCUGUGGGUAGACUGCC [G5U C13A C37G], 0.02.
As for GGCAUAGUUCAACACAGCGUGGCAAAGUGGCUGUGGCUCGACUGCC [G5U C8U A39C], the self-cleavage came out at 0.39.
In the case of GGCAUAGCUCAACCCAGCGUGGCAAAGUGGCGGUGGCUAGACUGCC [G5U A14C U32G] it was 0.03; in that of GGCAUAGUUUAACACAGCGUGUCAGAGUGGCAGUCGCUAGACUGCC [G5U C8U C10U G22U A25G U32A G35C], 0.01.
The result for GGCAUAGCUCAAAACAGUGUGGCAAAGUGGCCAUGGCCAGCCUGCC [G5U C13A C18U U32C G33A U38C A41C] reads 0.01; that for GGCAUAGCUCAACACAGCGUGGCCCAGUGGCUGUGGCUAGACUGCC [G5U A24C A25C], 0.01; that for GGCAUAGCUAAGCACAGCUUGGCAAAGUCGGUGUGGCUAGACUGCC [G5U C10A A12G G19U G29C C31G], 0.01.
The result for GGCAUAGGUCAAGACAGCGUGGAAAAGUGGCUGUGGCUAGACUGCC [G5U C8G C13G C23A] reads 0.15.
As to GGCAUAGUUCAACACAGCGUAGCAAAGUAGCUGUGGCUGGACUGCC [G5U C8U G21A G29A A39G], the self-cleavage is 0.02.
Regarding GGCAUAGCUUAACAGAGCGUGGCUAAGUGGAUGUGGCUAGAAUGCG [G5U C10U C15G A24U C31A C42A C46G], the self-cleavage was found to be 0.02.
On to GGCAUAGCUCAACAUAGCGUGGCAAGGUGGCUGAGGUUAGACUGCC [G5U C15U A26G U34A C37U], for which the self-cleavage is 0.02.
The result for GGCAUAGCUCAACACAGCGUGGCUAAGCGGCUGUGGCGAGACUUCC [G5U A24U U28C U38G G44U] reads 0; that for GGCAUAGCUGAACACAGCGUCGAAAAGUGGCUGUGGCUAGACUGCC [G5U C10G G21C C23A], 0.02.
The result for GGCAUAGAUCAACACAGCGUGGCAAAGUGGCUAUGACUAGACUUCC [G5U C8A G33A G36A G44U] reads 0.12; that for GGCAUAGCUGAGGACAGCGUGGCAAAGUGGCUGUGGCUACACUGCC [G5U C10G A12G C13G G40C], 0.01.
Consider GGCAUAGCUCAUCACAGCGUGACAAAGUGGCUGGGGAUAGACUGCC [G5U A12U G22A U34G C37A], for which the self-cleavage was found to be 0.02.
The result for GGCAUAGGUCAACACACCGUGGCAAAGUGGCUGUGGCUAGACUGCC [G5U C8G G17C] reads 0.05; that for GGCAUAGUUCCACACAGCGUGGCAAAGUGUCUGUAGCUAGACUGCC [G5U C8U A11C G30U G35A], 0.01.
Regarding GGCAUAGCUCAGCACAGCGUGUCAAAGUGGGUGUGGCUAGACUGCC [G5U A12G G22U C31G], the self-cleavage was 0.03.
In the case of GGCAUAGCUCAACAGCUCGUGGCAAAGCGGCUGUGGCUAGACUGCC [G5U C15G A16C G17U U28C] it was 0; in that of GGCAUAGCUAAACACAGCGUAGCAAAUUGGCUGUCGCUAGACUGAC [G5U C10A G21A G27U G35C C45A], 0.

The record behind these values is the RNAGym collection of RNA variant scans (doi:10.7554/elife.90254).
